# Results taken from paper PMC5892938.
# The other results are listed elsewhere or left out. The source does not settle which construct or isoform was used.
# Biological target: GST-SBP-ILF3 (Homo sapiens) (UniProt Q12906)
# Assay: targeted RNA Bind-n-Seq
# Conditions: RBNS binding buffer: 25 mM Tris pH 7.5, 150 mM KCl, 3 mM MgCl2, 0.1% Tween, 0.5 mg/mL BSA, 1 mM DTT; 27 nM protein, 750 pM RNA pool; temperature not stated; high values mean tight binding; sequences stand for … in GGGUAAAAGCGAGGUGAA…CGGGACAAGUAUUAUGGG
row,Sequence,binding signal (log2 fold change)
1,GUGUGUGGUGUUGGUCCCUAACACCAUACA [gtspaired],-0.274
2,UUUUUUUUUUGAGACUGGGCCAGUCUCCAG [tttttgagapaired],0.523
3,UUUUUUUUUUGAGACGGAGACUGUCUCCUA [tttttgagapaired],1.12
4,GUUGUGUGUGUUGGCCCCUAACACACACAG [gtspaired],-0.161
5,UUUUUUUUUUGAGAAGGGCUCCUUCUCCAG [tttttgagapaired],0.24
6,GUGGUGUGUGUUGGACCCUAACACAUACCG [gtspaired],-0.511
7,GUGUGUUGUGUUGGUAUCUAACACAGCGCA [gtspaired],-0.672
8,UUUUUUUUUUGAGAGGGACACCCUCUCCGG [tttttgagapaired],0.271
9,UUUUUUUUUUGAGAUGGAUGCCAUCUUCUA [tttttgagapaired],0.0268
10,UUUUUUUUUUGAGAUGGGCUCUAUCUCCAG [tttttgagapaired],0.411
11,GGUGUGUGUGUUGGACCCUAACACAUACAC [gtspaired],-0.658
12,GUGUGUUGUGUUGGCCUCUAACACAGCACA [gtspaired],-0.399
13,UUUUUUUUUUGAGAUGGACCCCAUCUCCUA [tttttgagapaired],0.459
14,UUUUUUUUUUGAGAACGUAACGUUCUUCUG [tttttgagapaired],0.153
15,UUUUUUUUUUGAGAUCGGGGCGAUCUUCUA [tttttgagapaired],0.461
16,GUGGUGUGUGUUGGUCUCUAACACACACUA [gtspaired],-0.552
17,UUUUUUUUUUGAGAACGGGACGUUCUUCUG [tttttgagapaired],0.304
18,UUUUUUUUUUGAGAAGGAGUCCUUCUCCGG [tttttgagapaired],0.129
19,UUUUUUUUUUGAGAUGGGGUCCGUCUCCAG [tttttgagapaired],0.896
20,UUUUUUUUUUGAGAUGGUAACCAUCUCCGG [tttttgagapaired],0.226
21,GGUGGUGGUGUUGGAAUCUAACACCAUCGC [gtspaired],-0.418
22,GUGUGUUGUGUUGGUCCCUAACACAACACG [gtspaired],-0.628
23,UUUUUUUUUUGAGACCGGGCCGGUCUCCUG [tttttgagapaired],0.885
24,GUGUGUGGUGUUGGCGCCUAACACCGCAUA [gtspaired],-0.515
25,GUGUGUGGUGUUGGCAUCUAACACCAUACA [gtspaired],-0.578
26,UUUUUUUUUUGAGAGCGAAUCGCUCUUCUA [tttttgagapaired],0.368

row,Sequence,binding signal (log2 fold change)
1,GUGUUGUGUGUUGGCGCCUAACACACAGCG [gtspaired],-0.322
2,UUUUUUUUUUGAGAGGGUCUCCCUCUUCUG [tttttgagapaired],0.47
3,UUUUUUUUUUGAGAGGGCUCCCCUCUUCUA [tttttgagapaired],0.415
4,GGUGUGUGUGUUGGUAUCUAACACAUACGC [gtspaired],-0.393
5,UUUUUUUUUUGAGACUGGCACAGUCUUCUA [tttttgagapaired],0.0616
6,UUUUUUUUUUGAGACGGCUCCCGUCUCCUG [tttttgagapaired],0.966
7,UUUUUUUUUUGAGAGGGUAUCCCUCUCCGG [tttttgagapaired],0.313
8,UUUUUUUUUUGAGAUGGAGUCUAUCUCCUA [tttttgagapaired],-0.062
9,UUUUUUUUUUGAGAUGGACUCCAUCUCCAG [tttttgagapaired],0.141
10,UUUUUUUUUUGAGAGGGGCCCCCUCUCCAG [tttttgagapaired],1.09
11,UUUUUUUUUUGAGACUGAAUCAGUUUCCGG [tttttgagapaired],0.229
12,UUUUUUUUUUGAGAUGGUAACUAUCUUCUA [tttttgagapaired],0.0899
13,UUUUUUUUUUGAGAUGGGGGCCAUCUCCGG [tttttgagapaired],0.632
14,UUUUUUUUUUGAGACGGCAACCGUCUCCUA [tttttgagapaired],0.429
15,GUGGUGUGUGUUGGAAUCUAACACAUACUA [gtspaired],-0.757
16,UUUUUUUUUUGAGAGGGGUGCCCUCUCCAG [tttttgagapaired],0.621
17,UUUUUUUUUUGAGACUGAAGCAGUCUUCUG [tttttgagapaired],0.41
18,UUUUUUUUUUGAGACUGGAACAGUCUCCAG [tttttgagapaired],0.223
19,GUGUGUGGUGUUGGUGUCUAACACCGCAUA [gtspaired],-0.631
20,UUUUUUUUUUGAGACCGGAACGGUUUCCUA [tttttgagapaired],0.307
21,GUGUGUUGUGUUGGCCCCUAACACAGCGCG [gtspaired],-0.067
22,UUUUUUUUUUGAGAGCGGUACGCUCUUCUA [tttttgagapaired],0.0331
23,UUUUUUUUUUGAGAGCGUGACGCUCUUCUA [tttttgagapaired],0.0393
24,GGUUGGUGUGUUGGAGUCUAACACAUCAGC [gtspaired],-0.866
25,UUUUUUUUUUGAGACGGAAUCUGUCUCCGG [tttttgagapaired],0.383
